# Test results from the supplement of paper PMC8728848.
# The other results are listed elsewhere or left out.
# Key:
# Assay in all cases: glycan array binding signal (z-score within array); higher = stronger binding
# Conditions in all cases: glycan notation: IUPAC condensed, linker removed
# [1] = biological target: Neu5Ac(a2-6)Gal(b1-4)GlcNAc(b1-3)Gal(b1-4)GlcNAc(b1-3)Gal(b1-4)GlcNAc(b1-2)Man(a1-3)[Neu5Ac(a2-6)Gal(b1-4)GlcNAc(b1-3)Gal(b1-4)GlcNAc(b1-3)Gal(b1-4)GlcNAc(b1-2)Man(a1-6)]GalNAc
# Outline: (§1)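 The binding signal is a Z-score computed within each array. Data were drawn from 3228 arrays in the Consortium for Functional Glycomics database, restricted to those with a known protein sequence. Scores were averaged over arrays of the same protein sequence at different concentrations or buffers, and over linkers, and negative values can be taken as non-binding.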
# [2] = biological target: Neu5Ac(a2-6)Gal(b1-4)GlcNAc(b1-3)Gal(b1-4)GlcNAc(b1-3)GalNAc
# Outline: as §1
# [3] = biological target: Neu5Ac(a2-6)Gal(b1-4)GlcNAc(b1-3)Gal(b1-4)GlcNAc(b1-3)[Neu5Ac(a2-6)Gal(b1-4)GlcNAc(b1-3)Gal(b1-4)GlcNAc(b1-6)]GalNAc
# Outline: as §1
# [4] = biological target: Neu5Ac(a2-6)Gal(b1-4)GlcNAc(b1-3)Gal(b1-4)GlcNAc(b1-6)[Gal(b1-3)]GalNAc
# Outline: as §1
# [5] = biological target: Neu5Ac(a2-6)Gal(b1-4)GlcNAc(b1-3)Gal(b1-4)[Fuc(a1-3)]GlcNAc(b1-3)Gal(b1-4)[Fuc(a1-3)]GlcNAc
# Outline: as §1
# [6] = biological target: Neu5Ac(a2-6)Gal(b1-4)GlcNAc(b1-3)GalNAc
# Outline: as §1
# [7] = biological target: Neu5Ac(a2-6)Gal(b1-4)GlcNAc(b1-3)[Neu5Ac(a2-6)Gal(b1-4)GlcNAc(b1-6)]GalNAc
# Outline: as §1
# [8] = biological target: Neu5Ac(a2-6)Gal(b1-4)GlcNAc(b1-6)GalNAc
# Outline: as §1
# [9] = biological target: Neu5Ac(a2-6)Gal(b1-4)GlcNAc(b1-6)[Gal(b1-3)GlcNAc(b1-3)]Gal(b1-4)Glc
# Outline: as §1
# [10] = biological target: Neu5Ac(a2-6)Gal(b1-4)GlcNAc(b1-6)[Gal(b1-3)]GalNAc
# Outline: as §1
# [11] = biological target: Neu5Ac(a2-6)Gal(b1-4)GlcNAc6S
# Outline: as §1
# Neu5Ac(a2-6)GalNAc = biological target: Neu5Ac(a2-6)GalNAc
# Outline: as §1
# [12] = biological target: Neu5Ac(a2-6)GalNAc(b1-4)GlcNAc
# Outline: as §1
# [13] = biological target: Neu5Ac(a2-6)GalNAc(b1-4)GlcNAc6S
# Outline: as §1
# [14] = biological target: Neu5Ac(a2-6)GlcNAc(b1-4)GlcNAc
# Outline: as §1
# [15] = biological target: Neu5Ac(a2-6)GlcNAc(b1-4)GlcNAc(b1-4)GlcNAc
# Outline: as §1
# Neu5Ac(a2-8)Neu5Ac = biological target: Neu5Ac(a2-8)Neu5Ac
# Outline: as §1
# [16] = biological target: Neu5Ac(a2-8)Neu5Ac(a2-3)Gal(b1-3)GalNAc(b1-4)[Neu5Ac(a2-3)]Gal(b1-4)Glc
# Outline: as §1
# [17] = biological target: Neu5Ac(a2-8)Neu5Ac(a2-3)Gal(b1-3)GalNAc(b1-4)[Neu5Ac(a2-8)Neu5Ac(a2-3)]Gal(b1-4)Glc
# Outline: as §1
# [18] = biological target: Neu5Ac(a2-8)Neu5Ac(a2-3)Gal(b1-4)Glc
# Outline: as §1
# [19] = biological target: Neu5Ac(a2-8)Neu5Ac(a2-3)Gal(b1-4)GlcNAc
# Outline: as §1
# [20] = biological target: Neu5Ac(a2-8)Neu5Ac(a2-3)[Gal(b1-3)GalNAc(b1-4)]Gal(b1-4)Glc
# Outline: as §1
# [21] = biological target: Neu5Ac(a2-8)Neu5Ac(a2-3)[GalNAc(b1-4)]Gal(b1-4)Glc
# Outline: as §1
# [22] = biological target: Neu5Ac(a2-8)Neu5Ac(a2-8)Neu5Ac
# Outline: as §1
binder,measurement,setting,value
"MGL1 (Mus musculus), P49300 (protein) MIYENLQNSRIEEKTQEPGKAPSQSFLWRILSWTHLLLFSLGLSLLLLVVVSVIGSQNSQLRRDLGTLRATLDNTTSKIKAEFQSLDSRADSFEKGISSLKVDVEDHRQELQAGRDLSQKVTSLESTVEKREQALKTDLSDLTDHVQQLRKDLKALTCQLANLKNNGSEVACCPLHWTEHEGSCYWFSESEKSWPEADKYCRLENSHLVVVNSLEEQNFLQNRLANVVSWIGLTDQNGPWRWVDGTDFEKGFKNWAPLQPDNWFGHGLGGGEDCAHITTGGPWNDDVCQRTFRWICEMKLAKES",glycan array binding signal (z-score),[1],1.83
same,glycan array binding signal (z-score),[2],-0.695
same,glycan array binding signal (z-score),[3],1.11
same,glycan array binding signal (z-score),[4],0.585
same,glycan array binding signal (z-score),[5],-0.05
same,glycan array binding signal (z-score),[6],-0.946
same,glycan array binding signal (z-score),[7],0.126
same,glycan array binding signal (z-score),[8],-0.855
same,glycan array binding signal (z-score),[9],-0.342
same,glycan array binding signal (z-score),[10],-0.297
same,glycan array binding signal (z-score),[11],-0.094
same,glycan array binding signal (z-score),Neu5Ac(a2-6)GalNAc,0.136
same,glycan array binding signal (z-score),[12],0.221
same,glycan array binding signal (z-score),[13],0.527
same,glycan array binding signal (z-score),[14],-0.401
same,glycan array binding signal (z-score),[15],-0.198
same,glycan array binding signal (z-score),Neu5Ac(a2-8)Neu5Ac,-0.151
same,glycan array binding signal (z-score),[16],-0.125
same,glycan array binding signal (z-score),[17],0.861
same,glycan array binding signal (z-score),[18],-0.098
same,glycan array binding signal (z-score),[19],-0.551
same,glycan array binding signal (z-score),[20],-0.034
same,glycan array binding signal (z-score),[21],-0.557
same,glycan array binding signal (z-score),[22],-0.349
